Assay results published in EP1366764A1, “Method of screening for calcium receptor-active molecules” (The Brigham & Women's Hospital, Inc., priority 1993, dated 1994).

Tested on: bovine parathyroid cells
Type: cell-based
Details: at concentrations that caused the mobilization of intracellular Ca2+; 30 min, 0.5 mM extracellular Ca2+
Experimental: Cells were suspended in PCB containing 0.5 mM CaCl2 and 0.1% BSA.
Counting of samples and data reduction were performed on a Packard Cobra 5005 gamma counter.

SMILES | inhibition of PTH secretion
NC[C@@H]1O[C@H](O[C@H]2[C@@H](O)[C@H](O[C@@H]3[C@@H](O)[C@H](N)C[C@H](N)[C@H]3O[C@H]3O[C@H](CN)[C@@H](O)[C@H](O)[C@H]3N)O[C@@H]2CO)[C@H](N)[C@@H](O)[C@@H]1O [neomycin B] | inhibited PTH secretion to the same extent as extracellular Ca^2+
NCCCNCCCCNCCCN [spermine] | inhibited PTH secretion to the same extent as extracellular Ca^2+
